# According to PubChem BioAssay AID1030 (National Center for Advancing Translational Sciences (NCATS), 2008):
# Screen size: about 220,000 compounds; about 16,000 (7.3%) were called active. Inconclusive results, whose numbers are uncertain, are shown with a selection of clear calls. Calls come from the whole dose curve; as a rule, active = well fitted inhibition curve with a large enough effect (not every such curve was filed as active); inconclusive = small, poorly fitted or top-dose-only effect, or another doubt; inactive = no such curve, though single readings can be large or run the other way. No potency is given beside an inconclusive call; the fits are too rough. Square brackets hold non-standard residues; d marks the D form. Peptide text beside a SMILES is read from it. * marks the point of attachment. ξ: configuration not given here. ξY = NC(Cc1ccc(O)cc1)C(=O)O; Cbz = O=C(OCc1ccccc1)*; OtBu = CC(C)(C)O*; tBu = CC(C)(C)*
# Biological target: Aldehyde dehydrogenase 1A1 (Homo sapiens) (UniProt P00352)
# Sequence of UniProt P00352 (P00352 whole entry, looked up): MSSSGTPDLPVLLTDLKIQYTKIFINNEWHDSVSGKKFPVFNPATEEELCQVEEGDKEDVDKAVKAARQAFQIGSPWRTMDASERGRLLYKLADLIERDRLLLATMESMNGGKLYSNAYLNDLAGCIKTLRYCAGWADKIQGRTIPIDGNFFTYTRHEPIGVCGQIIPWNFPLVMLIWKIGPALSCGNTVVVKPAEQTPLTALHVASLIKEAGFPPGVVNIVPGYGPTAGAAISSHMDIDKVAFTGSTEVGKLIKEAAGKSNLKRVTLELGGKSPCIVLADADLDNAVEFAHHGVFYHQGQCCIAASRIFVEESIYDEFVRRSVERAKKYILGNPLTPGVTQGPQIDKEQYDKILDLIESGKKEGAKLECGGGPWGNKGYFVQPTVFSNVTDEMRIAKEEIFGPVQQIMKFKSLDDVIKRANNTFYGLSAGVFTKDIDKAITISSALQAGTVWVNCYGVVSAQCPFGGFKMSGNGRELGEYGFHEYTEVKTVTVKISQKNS
# Assay: qHTS Assay for Inhibitors of Aldehyde Dehydrogenase 1 (ALDH1A1)
# Conditions: Purified ALDH1A1, NADH fluorescence, propionaldehyde substrate; series mostly up to 75.3 µM
# Potency is the fitted concentration of half-maximal effect; tags give direction and shape of the fitted curve.
row,SMILES,Potency
1,Cc1ccc(/C=C/C(=O)N2CCN(Cc3ccccc3)CC2)o1,active: 8.91 µM
2,CC1CC1C(=O)OCC(=O)c1c(N)n(C)c(=O)n(C)c1=O (stereo not given),"inconclusive [inhibitor, single point]"
3,COc1ccccc1NC(=O)Cn1c(CCC(=O)O)ccc1-c1ccccc1,inactive
4,Cc1nn(Cc2ccc(Cl)cc2Cl)c(C)c1NC(=O)NC12CC3CC(CC(C3)C1)C2,"inconclusive [inhibitor, partial curve]"
5,COc1cc(/C=N/NC(=O)CCn2cnc(-c3ccccc3)c2-c2ccccc2)ccc1O,"inconclusive [inhibitor, partial curve]"
6,O=C(OCC#CCSc1nnc(-c2ccc(Br)cc2)o1)c1ccco1,"inconclusive [inhibitor, single point]"
7,CCOC(=O)N1CCN(C(=O)CSc2nc3c(cnn3-c3ccccc3)c(=O)[nH]2)CC1,active: 11.2 µM
8,CCN1C(=O)CC(N2CCN(c3ccc(C(=O)c4ccccc4)cc3)CC2)C1=O (stereo not given),"inconclusive [inhibitor, partial curve]"
9,CCN(CC)c1ccc(-n2cc3c(=O)n(C)c(=O)n(C)c3c2)cc1,"inconclusive [inhibitor, partial curve]"
10,CCOC(=O)C1CCCN(c2c(Nc3cccc(C)c3)c(=O)c2=O)C1 (stereo not given),inactive
11,O=C1C(Cl)=C(NCC2CCCO2)C(=O)N1CCc1ccccc1 (stereo not given),"inconclusive [inhibitor, single point]"
12,Cc1nsc(Nc2ccccc2)c1C#N,inactive
13,O=C(C1COc2ccccc2O1)N1CCCC1 (stereo not given),"inconclusive [inhibitor, single point]"
14,O=C(O)CCSC1=NCCN1,"inconclusive [inhibitor, partial curve]"
15,O=C(O)CCn1cc(/C=C2\NC(=S)N(c3ccccc3)C2=O)c(-c2ccc(Br)cc2)n1,inactive
16,COc1ccccc1NC(=O)/C(=C/c1cccc([N+](=O)[O-])c1)c1ccccc1,inactive
17,C(=N\Nc1ccccc1)/c1ccc(N2CCOCC2)cc1,active: 6.31 µM
18,COc1ccc(CN/C(C)=C(/C#N)C(N)=O)cc1OC,inactive
19,O=C(NC(=S)N1CCN(Cc2ccccc2)CC1)c1ccco1,"inconclusive [inhibitor, single point]"
20,Cn1c(N)c(C(=O)NCc2ccccc2Cl)sc1=S,"inconclusive [inhibitor, single point]"
21,CC(C)C[C@@H](CC(=O)N[C@H](CC(=O)N[C@@H]1CCCC[C@H]1C(=O)N[C@H](CC(=O)N[C@@H](CCC(=O)O)CC(=O)O)CC(C)C)C(C)C)NC(=O)[C@@H]1CNCC[C@H]1N,"inconclusive [inhibitor, single point]"
22,O=C(CNC(=S)N(Cc1ccccc1Cl)C1CCCC1)NCCN1CCOCC1,"inconclusive [inhibitor, partial curve]"
23,Cc1ccc(/C=N/N2CCN(c3ccccc3)CC2)cc1,inactive
24,Cc1ccc(Nc2nc(NCc3ccco3)c3ccccc3n2)cc1,"inconclusive [inhibitor, single point]"
25,NNC(=O)CCc1ccc(S(=O)(=O)N2CCOCC2)cc1,"inconclusive [inhibitor, partial curve]"
26,O=C(CSc1nc2ccccc2c(=O)n1Cc1ccco1)N1CCN(c2ccccc2)CC1,"inconclusive [inhibitor, single point]"
27,COC(=O)CCC(=O)OC1(C)C(=O)C=C2C=C(CCCNC(=O)OC(C)(C)C)OC=C2C1=O (stereo not given),inactive
28,CC(C)C(=O)NC(=S)Nc1ccc(S(=O)(=O)Nc2ccccc2)cc1,"inconclusive [inhibitor, single point]"

row,SMILES,Potency
1,O=[N+]([O-])c1ccc(/C=N/n2c(COc3ccccc3)n[nH]c2=S)cc1,active: 28.2 µM
2,COc1ccc(C(=O)N2CCC[C@@]3(CCN(c4cccc(-c5ccccc5)c4)C3)C2)cc1,"inconclusive [inhibitor, partial curve]"
3,COc1ccc2[nH]c(=O)c(C(c3nnnn3CC3CCCO3)N3CCc4ccccc4C3)cc2c1 (stereo not given),"inconclusive [inhibitor, partial curve]"
4,CCc1ccc(-c2c(C)sc(NC(C)=O)c2C(N)=O)cc1,"inconclusive [inhibitor, single point]"
5,CCOC(=O)c1cc2c(s1)-c1c(C)cccc1OC2,"inconclusive [inhibitor, partial curve]"
6,CCOc1ccccc1NC(=O)c1cccc(S(=O)(=O)N(Cc2ccccc2)c2ccccc2OC)c1,inactive
7,COC(=O)c1ccc2c(=O)n(CCCCCC(=O)O)c(=O)[nH]c2c1,"inconclusive [inhibitor, single point]"
8,O=[N+]([O-])c1cc(S(=O)(=O)Nc2ccccc2)ccc1N1CCN(c2ccccc2)CC1,inactive
9,CC(=O)Nc1ccc(S(=O)(=O)N2CCN(C(C)CCc3ccccc3)CC2)cc1 (stereo not given),active: 31.6 µM
10,O=C(c1ccco1)c1nnn(Cc2ccccc2)c1-c1ccccc1,active: 11.2 µM
11,S=c1[nH]cnc2sc(Nc3ccccc3)nc12,inactive
12,CCOC(=O)/C(C#N)=C/c1ccc(SC)cc1,active: 17.8 µM
13,COc1ccc(-n2c(SCC(=O)Nc3ccc(C(=O)O)cc3)nnc2-c2cccs2)cc1,"inconclusive [inhibitor, partial curve, poor fit]"
14,Cc1c(-c2ccccc2)oc2c(C(=O)OCC(=O)Nc3ccc(C(N)=O)cc3)cccc2c1=O,"inconclusive [inhibitor, single point]"
15,C=CCN(C(=O)c1cccc(N2C(=O)C3CC=CC(C)C3C2=O)c1)c1ccccc1 (stereo not given),"inconclusive [inhibitor, single point]"
16,O=c1cc(CN2CCN(c3ccccc3O)CC2)nc2sccn12,active: 25.1 µM
17,CCN(CC)CCn1c(NC(=O)c2ccc(C(F)(F)F)cc2)nc2ccccc21,"inconclusive [inhibitor, single point]"
18,CC(=O)Nc1ccc2nc(-c3ccc(Br)o3)[nH]c2c1,active: 31.6 µM
19,CC(C)(C)OC(=O)C(Cc1ccc(OC(C)(C)C)cc1)NC(=O)CNC(=O)CNC(=O)OCc1ccccc1 (stereo not drawn) (Cbz-Gly-Gly-[ξY](tBu)-OtBu),"inconclusive [inhibitor, single point]"
20,Cc1nc(C)c(C(=O)C2=C(O)C(=O)N(CCN3CCOCC3)C2c2cccs2)s1 (stereo not given),"inconclusive [inhibitor, single point]"
21,Cc1occc1C(=O)N1CCCc2ccccc21,active: 31.6 µM
22,COc1ccc(-c2cn(-c3ccc(C)cc3)c(=O)n2CC(=O)Nc2ccc(OC)cc2OC)cc1,"inconclusive [inhibitor, partial curve]"
23,CCCCCCCC(=O)NNC(=O)Cc1ccccc1,inactive
24,CC1Cc2ccccc2N1CC(=O)Nc1cccc(S(N)(=O)=O)c1 (stereo not given),inactive
25,COc1ccc(CN=C2NC(=O)CC(C(=O)Nc3ccc([N+](=O)[O-])cc3C)S2)cc1 (stereo not given),"inconclusive [inhibitor, single point]"
26,CCCCOc1cccc(C2C(C(=O)c3cccs3)=C(O)C(=O)N2Cc2cccnc2)c1 (stereo not given),inactive
27,CCC(CNc1cc(OC)cc2cccnc12)NC1CCCCC1 (stereo not given),"inconclusive [inhibitor, single point]"
